Results as given in publication PMC4970744.
No constants are given. Whether binding was seen depends on the method and setting. In cells and extracts the contact can be indirect. Some entries that bind do so weakly or less than the wild type. For some of these results: Tags and fused reporters may be left off the sequences shown.

Chains of the proteins cited; added tags and fusions are not shown.
UniProt P03126: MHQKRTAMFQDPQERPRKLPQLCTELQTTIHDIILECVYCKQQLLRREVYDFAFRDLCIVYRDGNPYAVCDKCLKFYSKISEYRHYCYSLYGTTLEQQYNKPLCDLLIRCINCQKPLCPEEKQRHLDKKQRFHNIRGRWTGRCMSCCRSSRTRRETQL
UniProt P06463: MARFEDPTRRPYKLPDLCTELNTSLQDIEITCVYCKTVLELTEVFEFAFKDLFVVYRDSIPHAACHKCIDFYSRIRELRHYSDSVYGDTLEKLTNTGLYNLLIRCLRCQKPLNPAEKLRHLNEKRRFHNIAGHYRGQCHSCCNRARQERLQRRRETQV
UniProt Q14160: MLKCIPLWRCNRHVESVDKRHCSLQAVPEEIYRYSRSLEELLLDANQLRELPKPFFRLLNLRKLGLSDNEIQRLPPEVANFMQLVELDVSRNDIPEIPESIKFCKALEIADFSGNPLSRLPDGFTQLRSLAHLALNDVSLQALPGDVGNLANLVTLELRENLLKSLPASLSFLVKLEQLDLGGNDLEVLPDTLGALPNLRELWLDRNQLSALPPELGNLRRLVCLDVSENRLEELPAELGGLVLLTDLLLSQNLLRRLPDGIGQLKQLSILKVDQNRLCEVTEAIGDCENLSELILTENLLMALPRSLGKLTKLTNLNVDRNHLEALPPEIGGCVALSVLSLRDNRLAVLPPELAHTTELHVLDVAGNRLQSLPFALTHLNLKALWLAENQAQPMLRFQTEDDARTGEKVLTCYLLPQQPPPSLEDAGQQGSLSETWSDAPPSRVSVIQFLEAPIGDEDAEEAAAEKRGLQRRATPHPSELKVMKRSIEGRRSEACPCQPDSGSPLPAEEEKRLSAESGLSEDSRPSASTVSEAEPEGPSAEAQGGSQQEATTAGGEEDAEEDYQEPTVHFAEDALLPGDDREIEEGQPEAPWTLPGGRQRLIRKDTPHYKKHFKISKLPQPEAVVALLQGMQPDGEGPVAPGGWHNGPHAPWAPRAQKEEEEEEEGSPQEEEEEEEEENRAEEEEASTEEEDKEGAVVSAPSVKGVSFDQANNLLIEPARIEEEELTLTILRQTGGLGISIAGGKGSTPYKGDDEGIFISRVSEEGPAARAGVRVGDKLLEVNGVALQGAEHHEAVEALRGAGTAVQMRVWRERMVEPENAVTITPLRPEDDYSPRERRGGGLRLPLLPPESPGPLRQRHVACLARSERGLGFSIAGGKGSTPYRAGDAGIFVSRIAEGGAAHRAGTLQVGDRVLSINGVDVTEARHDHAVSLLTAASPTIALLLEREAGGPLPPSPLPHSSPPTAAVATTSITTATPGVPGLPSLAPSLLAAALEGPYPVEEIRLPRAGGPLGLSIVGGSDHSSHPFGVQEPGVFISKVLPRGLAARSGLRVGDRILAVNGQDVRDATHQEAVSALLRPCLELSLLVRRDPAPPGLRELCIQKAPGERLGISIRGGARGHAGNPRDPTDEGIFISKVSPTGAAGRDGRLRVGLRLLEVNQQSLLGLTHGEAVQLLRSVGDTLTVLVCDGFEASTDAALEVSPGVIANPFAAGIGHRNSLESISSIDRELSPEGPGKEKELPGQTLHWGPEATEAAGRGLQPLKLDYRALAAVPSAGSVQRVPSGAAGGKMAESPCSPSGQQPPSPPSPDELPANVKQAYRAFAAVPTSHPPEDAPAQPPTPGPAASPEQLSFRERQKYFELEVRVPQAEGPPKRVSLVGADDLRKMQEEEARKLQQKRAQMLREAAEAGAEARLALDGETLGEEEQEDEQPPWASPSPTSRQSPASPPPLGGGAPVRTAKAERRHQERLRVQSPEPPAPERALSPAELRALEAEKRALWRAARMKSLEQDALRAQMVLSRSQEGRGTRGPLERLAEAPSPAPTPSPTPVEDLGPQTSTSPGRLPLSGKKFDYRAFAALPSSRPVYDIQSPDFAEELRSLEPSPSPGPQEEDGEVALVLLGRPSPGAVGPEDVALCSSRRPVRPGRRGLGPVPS
UniProt Q07157: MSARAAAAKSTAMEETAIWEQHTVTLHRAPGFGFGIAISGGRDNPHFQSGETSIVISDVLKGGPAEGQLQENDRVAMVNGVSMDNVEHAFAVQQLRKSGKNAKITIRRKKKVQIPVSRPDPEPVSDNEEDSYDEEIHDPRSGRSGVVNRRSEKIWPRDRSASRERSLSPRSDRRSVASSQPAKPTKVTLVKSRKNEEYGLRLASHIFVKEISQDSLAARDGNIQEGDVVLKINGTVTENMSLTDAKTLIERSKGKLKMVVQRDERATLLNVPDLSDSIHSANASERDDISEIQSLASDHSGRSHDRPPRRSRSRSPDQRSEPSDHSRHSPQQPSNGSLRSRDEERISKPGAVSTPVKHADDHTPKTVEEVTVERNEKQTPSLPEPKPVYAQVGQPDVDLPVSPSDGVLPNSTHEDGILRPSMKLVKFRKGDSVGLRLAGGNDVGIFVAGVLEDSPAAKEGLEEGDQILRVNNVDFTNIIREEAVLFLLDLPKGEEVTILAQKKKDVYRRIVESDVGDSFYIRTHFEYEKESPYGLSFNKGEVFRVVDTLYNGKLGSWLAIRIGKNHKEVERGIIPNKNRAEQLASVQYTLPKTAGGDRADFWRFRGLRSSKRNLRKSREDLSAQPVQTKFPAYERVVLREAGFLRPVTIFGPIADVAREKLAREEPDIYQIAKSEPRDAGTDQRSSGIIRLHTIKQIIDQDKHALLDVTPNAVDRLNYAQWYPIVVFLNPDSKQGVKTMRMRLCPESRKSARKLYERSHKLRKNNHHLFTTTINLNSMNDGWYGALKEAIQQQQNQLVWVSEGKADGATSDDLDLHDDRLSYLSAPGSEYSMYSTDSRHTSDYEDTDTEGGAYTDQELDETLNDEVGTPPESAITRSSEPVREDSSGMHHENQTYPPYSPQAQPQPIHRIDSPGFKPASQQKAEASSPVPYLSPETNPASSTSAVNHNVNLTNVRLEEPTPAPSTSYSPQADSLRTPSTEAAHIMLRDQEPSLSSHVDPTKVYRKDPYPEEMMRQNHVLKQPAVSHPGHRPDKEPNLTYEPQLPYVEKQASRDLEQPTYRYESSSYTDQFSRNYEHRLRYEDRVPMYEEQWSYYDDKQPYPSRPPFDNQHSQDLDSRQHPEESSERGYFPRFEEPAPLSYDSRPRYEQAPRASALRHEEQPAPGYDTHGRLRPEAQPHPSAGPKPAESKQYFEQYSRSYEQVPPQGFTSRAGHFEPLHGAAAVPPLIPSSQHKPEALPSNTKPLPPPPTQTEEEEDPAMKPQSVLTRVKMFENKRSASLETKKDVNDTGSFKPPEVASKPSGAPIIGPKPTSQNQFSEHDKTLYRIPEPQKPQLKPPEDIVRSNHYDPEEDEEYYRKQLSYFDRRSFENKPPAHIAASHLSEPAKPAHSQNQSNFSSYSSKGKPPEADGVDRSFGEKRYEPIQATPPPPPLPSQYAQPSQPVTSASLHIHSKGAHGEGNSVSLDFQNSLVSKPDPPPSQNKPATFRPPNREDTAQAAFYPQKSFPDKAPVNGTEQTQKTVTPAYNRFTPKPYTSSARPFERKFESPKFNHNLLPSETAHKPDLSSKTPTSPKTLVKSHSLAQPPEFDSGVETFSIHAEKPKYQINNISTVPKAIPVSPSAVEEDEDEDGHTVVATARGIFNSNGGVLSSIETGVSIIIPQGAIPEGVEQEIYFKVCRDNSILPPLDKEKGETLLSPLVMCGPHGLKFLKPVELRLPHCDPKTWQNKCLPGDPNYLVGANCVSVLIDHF

Assays:
[1] = molecular target: GST-HPV-16E6 (Human papillomavirus type 16) (UniProt P03126); experiment: pull-down; GST-E6 fusion proteins incubated with in vitro translated radiolabelled cellular protein (DLG1, hScrib or SNTB2); autoradiograph; only the target purified
[2] = molecular target: GST-HPV-16E6 (Human papillomavirus type 16) (UniProt P03126); experiment: pull-down; GST-E6 fusion proteins incubated with extract of 293 cells transfected with HA-ZO-1 or HA-ZO-2; extensive washing; western blot with anti-HA antibody; only the target purified
[3] = molecular target: GST-E6 protein from HPV type 51 (Human papillomavirus type 51) (UniProt P26554); experiment: as above
[4] = molecular target: GST-E6 protein from HPV type 31 (Human papillomavirus type 31) (UniProt P17386); experiment: as above
[5] = molecular target: GST-HPV-18-E6 (Human papillomavirus type 18) (UniProt P06463); experiment: as above
[6] = molecular target: GST-HPV-16E6 (Human papillomavirus type 16) (UniProt P03126); experiment: as above; remark: listed apart in the source
[7] = molecular target: GST-E6 protein from HPV type 51 (Human papillomavirus type 51) (UniProt P26554); experiment: as above; remark: listed apart in the source
[8] = molecular target: GST-E6 protein from HPV type 31 (Human papillomavirus type 31) (UniProt P17386); experiment: as above; remark: listed apart in the source
[9] = molecular target: GST-HPV-18-E6 (Human papillomavirus type 18) (UniProt P06463); experiment: as above; remark: listed apart in the source
[10] = molecular target: GST-HPV-16E6 (Human papillomavirus type 16) (UniProt P03126); experiment: pull-down; GST-E6 fusion proteins incubated with in vitro translated radiolabelled cellular protein (DLG1, hScrib or SNTB2); autoradiograph; only the target purified; remark: listed apart in the source
[11] = molecular target: GST-E6 protein from HPV type 51 (Human papillomavirus type 51) (UniProt P26554); experiment: as above
[12] = molecular target: GST-E6 protein from HPV type 31 (Human papillomavirus type 31) (UniProt P17386); experiment: as above
[13] = molecular target: GST-HPV-18-E6 (Human papillomavirus type 18) (UniProt P06463); experiment: as above

## in vitro translated radiolabelled hScrib (from UniProt Q14160 1-1655)
[1]
  binding: binds

## HA-ZO-1 (from UniProt Q07157 1-1748)
[2]
  binding: no binding
[3]
  binding: no binding
[4]
  binding: no binding
[5]
  binding: no binding

B1: HA-ZO-2 (protein, UniProt Q9UDY2 1-1190)
chain: MPVRGDRGFPPRRELSGWLRAPGMEELIWEQYTVTLQKDSKRGFGIAVSGGRDNPHFENGETSIVISDVLPGGPADGLLQENDRVVMVNGTPMEDVLHSFAVQQLRKSGKVAAIVVKRPRKVQVAALQASPPLDQDDRAFEVMDEFDGRSFRSGYSERSRLNSHGGRSRSWEDSPERGRPHERARSRERDLSRDRSRGRSLERGLDQDHARTRDRSRGRSLERGLDHDFGPSRDRDRDRSRGRSIDQDYERAYHRAYDPDYERAYSPEYRRGARHDARSRGPRSRSREHPHSRSPSPEPRGRPGPIGVLLMKSRANEEYGLRLGSQIFVKEMTRTGLATKDGNLHEGDIILKINGTVTENMSLTDARKLIEKSRGKLQLVVLRDSQQTLINIPSLNDSDSEIEDISEIESNRSFSPEERRHQYSDYDYHSSSEKLKERPSSREDTPSRLSRMGATPTPFKSTGDIAGTVVPETNKEPRYQEDPPAPQPKAAPRTFLRPSPEDEAIYGPNTKMVRFKKGDSVGLRLAGGNDVGIFVAGIQEGTSAEQEGLQEGDQILKVNTQDFRGLVREDAVLYLLEIPKGEMVTILAQSRADVYRDILACGRGDSFFIRSHFECEKETPQSLAFTRGEVFRVVDTLYDGKLGNWLAVRIGNELEKGLIPNKSRAEQMASVQNAQRDNAGDRADFWRMRGQRSGVKKNLRKSREDLTAVVSVSTKFPAYERVLLREAGFKRPVVLFGPIADIAMEKLANELPDWFQTAKTEPKDAGSEKSTGVVRLNTVRQIIEQDKHALLDVTPKAVDLLNYTQWFPIVIFFNPDSRQGVKTMRQRLNPTSNKSSRKLFDQANKLKKTCAHLFTATINLNSANDSWFGSLKDTIQHQQGEAVWVSEGKMEGMDDDPEDRMSYLTAMGADYLSCDSRLISDFEDTDGEGGAYTDNELDEPAEEPLVSSITRSSEPVQHEESIRKPSPEPRAQMRRAASSDQLRDNSPPPAFKPEPPKAKTQNKEESYDFSKSYEYKSNPSAVAGNETPGASTKGYPPPVAAKPTFGRSILKPSTPIPPQEGEEVGESSEEQDNAPKSVLGKVKIFEKMDHKARLQRMQELQEAQNARIEIAQKHPDIYAVPIKTHKPDPGTPQHTSSRPPEPQKAPSRPYQDTRGSYGSDAEEEEYRQQLSEHSKRGYYGQSARYRDTEL
[6]
  binding: binds
[7]
  binding: binds
[8]
  binding: binds
[9]
  binding: binds

B2: in vitro translated, radiolabelled SNTB2 (protein, UniProt Q13425 1-540)
chain: MRVAAATAAAGAGPAMAVWTRATKAGLVELLLRERWVRVVAELSGESLSLTGDAAAAELEPALGPAAAAFNGLPNGGGAGDSLPGSPSRGLGPPSPPAPPRGPAGEAGASPPVRRVRVVKQEAGGLGISIKGGRENRMPILISKIFPGLAADQSRALRLGDAILSVNGTDLRQATHDQAVQALKRAGKEVLLEVKFIREVTPYIKKPSLVSDLPWEGAAPQSPSFSGSEDSGSPKHQNSTKDRKIIPLKMCFAARNLSMPDLENRLIELHSPDSRNTLILRCKDTATAHSWFVAIHTNIMALLPQVLAELNAMLGATSTAGGSKEVKHIAWLAEQAKLDGGRQQWRPVLMAVTEKDLLLYDCMPWTRDAWASPCHSYPLVATRLVHSGSGCRSPSLGSDLTFATRTGSRQGIEMHLFRVETHRDLSSWTRILVQGCHAAAELIKEVSLGCMLNGQEVRLTIHYENGFTISRENGGSSSILYRYPFERLKMSADDGIRNLYLDFGGPEGELTMDLHSCPKPIVFVLHTFLSAKVTRMGLLV
modifications: radiolabelled
[10]
  binding: binds
[11]
  binding: binds
[12]
  binding: binds
[13]
  binding: binds
